B1: OR4K15 (parent)
chain: GUUAACGGUCAUAGGCCAUGGAAACUAGGAGCACCAUUUCGCUGCCAGUGAAGAAAUGAACAAAGAAAAUCUGGGCCAGGCAGGCAUCAAAAGAAAUAGUCUUGCGCUCAACCAGAAAGUCUGUAAUCAUUUUAAGGGUA

Read counts are not given, so values of variants with three or more changes are uncertain.

Variants of B1 are the subject of the series. The series is described as follows: self-cleavage, relative activity (ratio to wild type); higher = more cleavage; in vitro, sequencing; the parent is a self-cleaving ribozyme.
On to A23G A30G U39C A47U A63G A64G U100C U120C, for which the self-cleavage came out at 0.93.
The value for A23G A30G U57C was 1.21; that for A22G A98G U103C U122A was 0.01.
Regarding A22U A114G U132A, the self-cleavage is 0.23.
Next, A23G A24G A92G: 1.07.
Next, A22G G75C U108C A116G G136A: 0.02.
Next, A22G A54G A67G C76U A82U A95U U120C: 0.08; A23G A52G A67G A118G: 1.
Take A23G A60G A78G U139C: the self-cleavage came out at 0.16.
In the case of A22G U37C A59G U102C A126G, the self-cleavage came out at 0.74.
For A22G A64G G106A, the self-cleavage was found to be 0.01.
The value for A22G U43C A135G was 1.27; that for A22G A62G A82U U127C U132C was 0.06.
The value for A22G A67G U70A was 0.33.
The value for A22G A51G U100C A126G was 0.82; that for A22U G79A A82U U102A A110C A126G was 0.01.
As to A22G U38A A51G A129G, the self-cleavage worked out at 0.89.
Next, A23G A54U A111G: 0.06; A23G A78U A94U: 0.7; A23G A62U A89G U131C: 0.61.
As for A22G U26C A52G A110G, the self-cleavage amounted to 0.13.
Next, A22U A23G U87C: 1.63.
The value for A22U A78G U103A was 0.06.
Consider A23G A33G U49C A68C A94G, for which the self-cleavage came to 0.65.
For A23G A27G A111U, the self-cleavage worked out at 0.19.
The value for A22G U97C A116U was 0.05; that for A23G A64G A66G A110U was 0.48.
On to A23G A64G U132A, for which the self-cleavage worked out at 1.34.
Next, A22G A51U A67G A116U: 0.24.
In the case of A23G A60G A62C A64G, the self-cleavage worked out at 0.44.
The value for A22G A51G A67G G83A was 0.89; that for A23C U49C A63G A69G A117U was 0.32; that for A22G A118G U120C U131A was 0.09.
Next, A22G U49A A86G A91G A95G: 0.27; A22G A55U A92U: 1.54.
Next, A23G A33G A52G: 0.78; A22G A91G U133C A135G: 1.2.
On to A22U G29A A47U A91G, for which the self-cleavage was 0.77.
The value for A23G A33G A47G was 0.66.
Turning to A23G A33U C85U, the self-cleavage was determined as 0.23.
Next, A23G A47G A56G: 1.06; A23G A51G A62C A68G G106A: 0.02; A23G A36G U38C: 1.73.
Next, A22G U72C U120G: 0.18; A23G A68U A78U A116G: 0.05; A22G U38C A47U C71A: 0.67.
The value for A23G A30G U39C A52U was 1.15; that for A23G A54G A60G A91G was 0.62.
Regarding A22G U49C A118G U130C, the self-cleavage was determined as 0.23.
The value for A23G A52G A78U U87A was 0.55; that for A22G U57A U72G was 0.21; that for A23G A68G A118G was 1.55.
The value for A23G A30G A64G A86U A92C A95G A135U was 1.58; that for A23G A63U U72C was 0.39.
Next, A23G A36U C105G: 0.06.
Regarding A23G A67G A110C, the self-cleavage turned out to be 0.05.
The value for A23G A51U A54G A64G U70C C71A was 0.61.
Next, A22G G80A A82U: 0.13; A22U A24C A78U: 0.23.
The value for A22G A92G U102A was 1.08; that for A22U A68G A92G A129G was 1.27.
In the case of A23C A110G U122C, the self-cleavage amounted to 0.08.
The value for A22U A52G A111G was 0.02; that for A22G A96G U103C was 1.65; that for A23G A33G U122C was 1.15.
Turning to A22G A86G U132C, the self-cleavage was determined as 1.12.
Next, A22G A66U A129G: 0.9; A22G A52G A60G: 1.61; A22U U70C U132C: 0.84.
Next, A23G A36G A51C: 0.57; A22U A63G U87C U122C U139C: 0.53.
Next, A22G A86U G138U: 1.26.
With A23G A33G A78U C113U, the self-cleavage was 0.02.
The value for A23G A30U A55G U87C was 0.78; that for A22G U49A A68G U120A was 0.71.
Next, A22G A60U A68G: 0.93; A23G A33C U43C: 2.71; A23G A66U A89G: 1.07.
The value for A22G C34U A36C C121A U132C was 1.99; that for A22U A47G U120C U122A was 0.28; that for A22G A63G U87C was 1.07.
Regarding A22G A68U A96G C105A, the self-cleavage is 0.05.
Turning to A23G A47C A135G, the self-cleavage came to 0.49.
The value for A22G A52G U120C U122C was 0.5.
Next, A23G A67G U108C U120C: 0.01; A22G U38C A63G U120C: 1.25; A23G A52G A56G U87C A90G: 0.32.
The value for A23G A33G A51U A54G A55G A59G was 0.93.
Regarding A22G A66U U87C A126G, the self-cleavage stood at 0.68.
Next, A23G A56G A67G: 1.03.
A22G A52G A62G U102C U130C: the self-cleavage stood at 1.18.
As to A23G A52G A69G A96G, the self-cleavage stood at 1.18.
On to A22U A24G A30G A114U A140U, for which the self-cleavage stood at 0.18.
The value for A23G A54G A86G was 1.22; that for A22G A54U A56G A64G A82G A95U A118G was 0.04; that for A22G A64G A68U was 1.02.
Regarding A22G A63G U103C, the self-cleavage came to 0.65.
Next, A23G A47G A55G: 0.89.
The value for A22G A68G A90G was 1.22; that for A22G A129G U132C was 0.84; that for A22G C45G G50A A56G A64U was 1.39.
As to A22U A30U A55G U57C A82G U122C, the self-cleavage was found to be 0.18.
Next, A22U A91G G115A U122C: 0.03; A22G A90G U102A: 0.4; A23G A67G U103C: 0.03.
As for A22U A33G A68G A86G, the self-cleavage was 0.65.
Next, A23G A47G U131C: 0.17.
Next, A23C A63G A64G A95G: 0.99; A23G A30G A86G A94G C121A G123A: 0.83; A22G A63U A118G: 0.9.
The value for A22G U39A A63G A98G was 1.19; that for A23G A47U A86G A126G was 0.19; that for A23G A56G A96G U103G was 0.11.
For the variant A22G C46U U139C, the self-cleavage stood at 1.37.
The value for A23C A60G U70A was 1.18; that for A22G U120C U127A A129G was 0.88; that for A22G U39A U57C A140U was 0.98.
Next, A22G U26C U97A U102C: 1.66.
Next, A23G A51G U133C: 1.35.
In the case of A22G U108C A117G U122A, the self-cleavage was 0.
Next, A23G A47C A54G A60G A116C: 0.02; A22G A52G A54G A111G U130A: 0.02.
Next, A23G A33C U87C: 1.16; A22G A54G A129G: 0.58.
Next, A22G U26C C85U A117G: 1.55.
For the variant A22G A78U A94G A117G A129C, the self-cleavage was found to be 0.17.
The value for A23G A59U U97C A129G was 1.12; that for A22G C34U A54G was 1.11; that for A23G A27G U127C U132A was 0.22.
With A22G A66G A67G, the self-cleavage came to 1.42.
Take A23G A59U U70C: the self-cleavage came out at 0.42.
For the variant A23G A33G G65A U120C, the self-cleavage came out at 0.34.
Next, A23G A66G U102C: 1.78.
The value for A22G A59G A114G C121U was 0.81.
Next, A23G A30G C42U A78U A86G U103C C121U: 0.08; A22U A23G A82U: 0.34.
Regarding A22G U38C G80U A89G U131C, the self-cleavage came to 0.16.
The value for A22U A67G A95G U133C was 2.24; that for A22G A96G U102C U108C U133C A135G was 0.01; that for A22U A24G A30G C32U U37C A78G was 0.36.
For the variant A23G A51G U72C G75A A94G A111G U120C, the self-cleavage stood at 0.01.
The value for A22G U37C G41A C42A A51G A64U was 0.59.
Consider A23G A47G A60G A82U A111G, for which the self-cleavage is 0.04.
As for A22G A67G A92G, the self-cleavage amounted to 1.15.
Regarding A22G U38C A66C, the self-cleavage came out at 1.37.
In the case of A22G U43C C76U, the self-cleavage stood at 0.26.
Next, A22G G75A U132C: 0.2.
The value for A23G A51G A110U was 1.4.
As for A23G A67G A117U U120C, the self-cleavage is 0.41.
Next, A22U A33G U38G A89G U131C: 0.71; A23G A51G A59U: 0.28; A22G A78G A126G: 0.09.
For A22G U70C A111G, the self-cleavage came out at 0.03.
Next, A23G A78C A140G: 0.15; A23G A82G A111G: 0.08.
Turning to A22G A111G U122C, the self-cleavage came out at 0.05.
In the case of A22U A60C A95G U97C, the self-cleavage turned out to be 1.37.
Next, A23G A82G U102G: 0.08; A23G A30G A33G G80A U108C U120C: 0; A22U G41A A69G U130C: 0.63.
The value for A22G A91G A95G was 1.39; that for A22G A91G U122C was 0.87; that for A23G A82G A117U was 0.72.
On to A23G A82G U87C A91G U102C, for which the self-cleavage worked out at 0.76.
Next, A22G U43C U132C: 0.86; A23G A52G A66G U70C: 0.55; A23G A24C A47U: 0.88.
